Data reported in paper PMC4336329 (PLoS ONE, 2015).
Among all 310,000 compounds or so, about 2,200 (0.71%) showed an effect of 50% or more. The effect is printed as a negative number. This is one part of the list.

The compounds below were run against human ether-à-go-go-related gene (hERG) potassium channel (human, UniProt Q12809) (assay: primary screen, population patch clamp on CHO cells stably expressing hERG).
human ether-à-go-go-related gene (hERG) potassium channel, sequence (Q12809 whole entry, looked up): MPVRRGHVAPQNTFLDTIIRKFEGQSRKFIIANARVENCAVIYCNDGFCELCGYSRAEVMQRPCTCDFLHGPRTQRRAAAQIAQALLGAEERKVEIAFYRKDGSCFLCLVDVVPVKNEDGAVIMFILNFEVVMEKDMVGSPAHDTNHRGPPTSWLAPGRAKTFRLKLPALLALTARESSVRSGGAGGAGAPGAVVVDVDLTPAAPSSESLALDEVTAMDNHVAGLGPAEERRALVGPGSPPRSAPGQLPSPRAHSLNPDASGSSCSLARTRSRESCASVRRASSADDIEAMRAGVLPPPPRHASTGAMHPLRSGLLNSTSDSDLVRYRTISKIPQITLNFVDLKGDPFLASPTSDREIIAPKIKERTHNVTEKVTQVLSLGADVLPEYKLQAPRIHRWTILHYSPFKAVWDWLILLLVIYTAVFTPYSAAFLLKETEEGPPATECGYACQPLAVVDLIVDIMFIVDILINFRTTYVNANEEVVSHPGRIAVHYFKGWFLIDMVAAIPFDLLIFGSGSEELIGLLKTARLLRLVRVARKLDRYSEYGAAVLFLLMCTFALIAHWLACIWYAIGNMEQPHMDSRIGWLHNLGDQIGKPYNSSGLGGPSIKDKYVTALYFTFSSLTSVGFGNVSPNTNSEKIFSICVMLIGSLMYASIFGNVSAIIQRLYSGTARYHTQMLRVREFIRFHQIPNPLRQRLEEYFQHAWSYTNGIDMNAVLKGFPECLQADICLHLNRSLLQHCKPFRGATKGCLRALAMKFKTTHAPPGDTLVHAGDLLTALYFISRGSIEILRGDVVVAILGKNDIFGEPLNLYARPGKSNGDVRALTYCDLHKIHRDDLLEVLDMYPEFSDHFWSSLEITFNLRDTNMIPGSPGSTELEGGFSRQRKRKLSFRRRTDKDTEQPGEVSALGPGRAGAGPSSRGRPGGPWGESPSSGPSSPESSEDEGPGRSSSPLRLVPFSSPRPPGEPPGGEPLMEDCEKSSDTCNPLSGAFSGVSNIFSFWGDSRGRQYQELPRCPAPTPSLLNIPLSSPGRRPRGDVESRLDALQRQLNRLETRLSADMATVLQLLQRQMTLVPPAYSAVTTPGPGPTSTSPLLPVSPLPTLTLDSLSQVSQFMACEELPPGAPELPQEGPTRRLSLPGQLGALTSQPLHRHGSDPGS

SMILES | hERG current change (%, negative = inhibition) at 1uM [%]
Cc1ccc(-c2nn(-c3ccccc3)cc2/C=C(\C#N)c2cccc(C#N)c2)o1 | 3.49
CC1(NC(=O)c2cccc(S(=O)(=O)N3CCN(c4ccccc4)CC3)c2)CCS(=O)(=O)C1 (stereo not drawn) | 5.75
c1cc2c(cc1-c1[nH]ncc1CN1CC3C[C@@H]4CC1C[C@H](C3)C4)OCO2 | -7.36
CCN1CCN(C(=O)/C=C/c2ccc(C(C)C)cc2)CC1 | -7.83
CCN(CC)c1ccc(NC(=O)C2CC(=O)N(Cc3ccccc3)C2)cc1 (stereo not drawn) | 9.96
CCOC(=O)c1c(C)c(C(=O)NCc2cccnc2)c(C)n1C | 12.4
Cc1cc(N2CCN(CC(O)C(F)(F)F)CC2)c2ccccc2n1 (stereo not drawn) | 1.42
Cc1ccc(N(CC(=O)Nc2ccccc2-c2ccccc2)S(=O)(=O)c2ccccc2)c(C)c1 | -1.18
Cc1cccc(NS(=O)(=O)c2ccc3[nH]c(=O)[nH]c3c2)c1C | 13.7
COCCCn1c(=O)c2ccccc2n(CC(=O)NC2CCCC2)c1=O | 16.9
CCNC(=O)C(Sc1ccccc1)c1ccccc1 (stereo not drawn) | 4.72
COc1ccc(-n2nc(C(=O)NCC(=O)NCC3CCCO3)c3ccccc3c2=O)c(OC)c1 (stereo not drawn) | -6.84
Cc1cc(C)cc(N(C(=O)c2csnn2)C(C(=O)NC(C)(C)C)c2ccccn2)c1 (stereo not drawn) | 9.68
CCN1CCN(C(=S)c2ccc(Cl)cc2)CC1 | -3.24
CC(=O)Nc1ccc(Nc2cc(C)nc3ccccc23)cc1 | 9.22
Cn1c(=O)c2cn(-c3cccc4ccccc34)cc2n(C)c1=O | 2.3
COc1ccc(C(=O)Nc2nnc(-c3ccccc3)s2)cc1 | 12.9
NC(=O)C1CCN(C(=S)c2cccs2)CC1 | 10.8
O=C(O)C1C2C=CC(C2)C1C(=O)N1CCN(CCO)CC1 (stereo not drawn) | 3.31
NS(=O)(=O)c1ccc(Nc2nc(-c3ccc(F)cc3)cs2)cc1 | 11.4
O=C(c1cccc(NS(=O)(=O)c2cccc(C(F)(F)F)c2)c1)N1CCOCC1 | 15.2
CC(C)C12CN3CC(C(C)C)(CN(C1)C3c1ccc([N+](=O)[O-])o1)C2=O (stereo not drawn) | 7.51
Cc1[nH]c(=O)[nH]c(=O)c1S(=O)(=O)NCCOC12CC3CC(CC(C3)C1)C2 | 9.88
CC(=O)N1CCc2cc(S(=O)(=O)NCCC(=O)N3CCN(c4ccccn4)CC3)ccc21 | -16.8
